44 compounds from publication PMC4336329 (PLoS ONE, 2015) can be followed below.

Molecules are shown by their SMILES. The campaign covered roughly 310,000 compounds. About 14,000 (4.5%) showed an effect of 50% or more. The effect is printed as a negative number. Some of the results follow.
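Also: peak tail current of the secondary pulse compared with the same well before compound.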

Sequence of human ether-à-go-go-related gene (hERG) potassium channel (Q12809 whole entry, looked up): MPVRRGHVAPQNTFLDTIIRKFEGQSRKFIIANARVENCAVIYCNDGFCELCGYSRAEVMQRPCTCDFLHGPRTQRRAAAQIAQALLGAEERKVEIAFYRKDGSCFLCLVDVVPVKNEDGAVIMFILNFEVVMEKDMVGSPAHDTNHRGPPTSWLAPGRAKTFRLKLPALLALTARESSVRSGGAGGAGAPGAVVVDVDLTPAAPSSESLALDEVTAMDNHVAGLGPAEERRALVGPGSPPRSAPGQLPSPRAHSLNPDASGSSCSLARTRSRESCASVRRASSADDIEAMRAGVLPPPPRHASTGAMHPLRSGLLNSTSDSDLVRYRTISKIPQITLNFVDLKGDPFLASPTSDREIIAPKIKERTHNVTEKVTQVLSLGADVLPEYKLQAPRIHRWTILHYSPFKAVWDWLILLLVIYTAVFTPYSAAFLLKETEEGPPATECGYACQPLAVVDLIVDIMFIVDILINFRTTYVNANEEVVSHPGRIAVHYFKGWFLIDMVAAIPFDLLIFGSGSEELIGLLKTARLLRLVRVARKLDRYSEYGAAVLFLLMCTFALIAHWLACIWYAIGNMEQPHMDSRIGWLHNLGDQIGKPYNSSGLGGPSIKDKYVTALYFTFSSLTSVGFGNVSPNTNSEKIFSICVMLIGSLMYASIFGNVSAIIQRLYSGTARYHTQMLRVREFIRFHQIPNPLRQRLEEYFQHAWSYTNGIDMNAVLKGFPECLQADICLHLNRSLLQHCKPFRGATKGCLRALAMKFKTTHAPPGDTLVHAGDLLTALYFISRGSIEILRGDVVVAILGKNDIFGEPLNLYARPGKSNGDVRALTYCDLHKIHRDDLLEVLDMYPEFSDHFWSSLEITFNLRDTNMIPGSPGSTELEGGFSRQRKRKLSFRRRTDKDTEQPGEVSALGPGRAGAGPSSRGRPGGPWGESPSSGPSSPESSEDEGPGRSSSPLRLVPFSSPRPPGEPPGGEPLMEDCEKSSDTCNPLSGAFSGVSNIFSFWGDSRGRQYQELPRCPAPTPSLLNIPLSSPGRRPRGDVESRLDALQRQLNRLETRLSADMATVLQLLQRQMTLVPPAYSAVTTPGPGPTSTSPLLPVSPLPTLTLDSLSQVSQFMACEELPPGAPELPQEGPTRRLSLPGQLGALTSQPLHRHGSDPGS

The assay concerns the target human ether-à-go-go-related gene (hERG) potassium channel (human, UniProt Q12809). In words: primary screen, population patch clamp on CHO cells stably expressing hERG.
For the compound `O=C(COC(=O)c1cc(=O)[nH]c2ccc(Br)cc12)c1ccccc1`, the “hERG current change (%, negative = inhibition) at 10uM” value was 23.3%.

Take `CCn1c(C)c(C(C)=O)c(N2CCN(c3ccc(OC)cc3)CC2)nc1=S`: the “hERG current change (%, negative = inhibition) at 10uM” value is -19%. Regarding `COc1ccc(CCC(=O)Nc2ccc(C)c(S(=O)(=O)N(C)C)c2)cc1OC`, the “hERG current change (%, negative = inhibition) at 10uM” value is reported as -17.5%. With `CCC(C)NS(=O)(=O)c1ccc(NS(=O)(=O)c2ccccc2[N+](=O)[O-])cc1` (centres unmarked) the figure was 5.33%; with `C=CCn1c(COc2ccc(F)cc2)nnc1SC(C)C(=O)NCC1CCCO1` (centres unmarked), -16.8%. The result for `COc1ccc(C(=O)N/N=C/c2cc3ccccc3[nH]c2=S)cc1` reads -5.03%; that for `NC(=O)COC(=O)CC1CC2CCC1C2` (centres unmarked), 16.1%; that for `CN1CCN(C(=O)COc2ccc(S(=O)(=O)NCc3ccccc3)cc2Cl)CC1`, -16.3%. With `CCc1cc2cccc(C)c2nc1SCC(=O)N1CCN(C(=O)c2ccco2)CC1` the figure was -54.4%; with `CCCNC(=O)c1onc(CSc2ccccc2)c1C(=O)NCCC`, -3.81%. Turning to `Cc1cccc(NC(=S)N/N=C/c2cccn2Cc2ccc(F)cc2)c1`, the “hERG current change (%, negative = inhibition) at 10uM” value is -9.66%. The result for `COc1ccc2cc(-c3cccnc3)ncc2c1` reads -7.88%; that for `COc1ccc(OC)c(/C=N/Nc2cc(C)nc(N3CCOCC3)n2)c1`, 5.7%. The result for `CC12CCC(C(=O)Nc3cccc(NC(=O)C45CCC(C)(C(=O)O4)C5(C)C)n3)(OC1=O)C2(C)C` reads 4.86%; that for `CCCCNC(=S)N(C)/N=C/c1ccc(F)cc1`, -8.72%. With `CCCOc1ccc2oc(=O)c3c(c2c1)CCCN3C(=O)CN1CCc2ccccc2C1` the figure was -24.1%.

With `Cc1cccc(-c2c3c(=O)n(C)c(=O)n(C)c3cn2C(C)(C)C)c1`, the “hERG current change (%, negative = inhibition) at 10uM” value worked out at 0.456%. The result for `Cc1ccc(C)n1-c1c(C(=O)NN)cnn1-c1ccccc1` reads 15.2%; that for `Cc1nc(N(C)C)c2sc(=S)n(Cc3ccccc3)c2n1`, 10.9%; that for `O=c1c2ccccc2nc(COc2ccccc2)n1/N=C/c1cn[nH]c1-c1ccccc1`, 3.39%.

On to `O=C(c1ccc(Cn2cc(Cl)c([N+](=O)[O-])n2)cc1)N1CCN(Cc2ccccc2)CC1`, for which the “hERG current change (%, negative = inhibition) at 10uM” value was -12.5%. With `O=P(c1ccccc1)(c1ccccc1)C(O)c1ccco1` (centres unmarked) the figure was -1.06%. With `CCOc1ccc(NC(=O)C2CCN(S(=O)(=O)c3ccc4c(c3)C(C)(C)C(=O)N4C)CC2)cc1` the figure was 11.2%. With `COc1ccc(NS(=O)(=O)c2ccc(N3CCOCC3)c(NC(=O)c3ccco3)c2)cc1` the figure was 30.3%. Turning to `N#Cc1cccc(S(=O)(=O)NCC(=O)NCc2ccc3c(c2)OCO3)c1`, the “hERG current change (%, negative = inhibition) at 10uM” value came to 5.51%.

Consider `O=C(CC1(O)C(=O)c2ccccc2C1=O)c1ccccc1`, for which the “hERG current change (%, negative = inhibition) at 10uM” value is 9.5%. With `O=C(O)CN1CCN(c2ncc(C(F)(F)F)cc2Cl)CC1` the figure was 11.6%; with `COC(=O)CCC(=O)c1oc2ccc(Br)cc2c1N`, 2.16%. With `CC(C)CNC(=O)[C@H](Cc1ccccc1)NC(=O)c1cccs1` the figure was 13.3%; with `Cc1ccc(C)c(NC(=O)COc2cccc3c2CCN(Cc2ccccc2C)C3=O)c1`, 14.9%; with `Cc1ccc(S(=O)(=O)N/N=C\c2cn(CC(N)=O)c3ccccc23)cc1`, 5.13%.

For the compound `O=C(CSc1ccccc1)Nc1ccc(C(=O)Nc2cccc(O)c2)cc1`, the “hERG current change (%, negative = inhibition) at 10uM” value is on record as 24.7%. With `[O-][N+]12CCCCC1CCCC2CO` (centres unmarked) the figure was 5.38%.

Take `CC(c1ccc(C(C)(C)C)cc1)S(=O)CC(O)CO` (centres unmarked): the “hERG current change (%, negative = inhibition) at 10uM” value is listed as 11.4%.

For `CCOc1ccccc1-n1nnnc1SCC(=O)NCC1(N2CCOCC2)CCCCC1`, the “hERG current change (%, negative = inhibition) at 10uM” value is reported as -67.7%. The result for `S=c1[nH]c2cnccc2n1Cc1ccccc1` reads 12.4%; that for `CCCCN1C(=O)/C(=C/C=C2/C=Cc3ccccc3N2CC)SC1=S`, 5.02%. `O=C(/C=C/c1ncc(C(F)(F)F)cc1Cl)OCc1ccccc1`: the “hERG current change (%, negative = inhibition) at 10uM” value is 6.37%.

Take `CC(C)(C)OC(=O)N[C@@H](C(=O)OC(C)(C)C)c1ccc2c(c1)OCO2`: the “hERG current change (%, negative = inhibition) at 10uM” value is given as -4.85%. The result for `CC(=O)c1cccc(NC(=O)c2cc(-c3ccco3)on2)c1` reads -11.6%; that for `COc1ccc(CN(Cc2cc3cc(C)ccc3[nH]c2=O)C(=O)N(C)C)cc1`, -9.97%; that for `CCn1c(SCC(=O)NC2CCCCC2)nnc1C(C)NC(=O)c1ccccc1F` (centres unmarked), -6.74%.

As to `Cc1cc(C(=O)Nc2ccc3ccccc3c2)oc1C`, the “hERG current change (%, negative = inhibition) at 10uM” value is -68.1%. The result for `CN1/C(=C/C(=O)c2nc(S(C)(=O)=O)ncc2Cl)C(C)(C)c2ccccc21` reads -29.9%.
